# Publication PMC12136788
# The other results are listed elsewhere or left out.
# T1: UNK ZnF1-3 (human, UniProt Q9C0B0 31-174)
# T1 sequence: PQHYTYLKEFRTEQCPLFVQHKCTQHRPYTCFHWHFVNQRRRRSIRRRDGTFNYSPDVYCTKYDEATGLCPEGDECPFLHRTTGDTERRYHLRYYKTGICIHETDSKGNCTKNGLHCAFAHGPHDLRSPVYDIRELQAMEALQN
# B1: 229611474_229613458_1793_CDS_ENSG00000069248_ENST00000261396|human|control|control (ssRNA)
# RNA: GGGAGUUCUACAGUCCGACGAUCUGCUUCCUCAGGGACAGACUCAGCCCACCGUGGGUCAGAUGCUGGGUAGUCAUCCAUCAGGUCUACACUGAUUUGGGUAACUGCCCUGUCUAGUUCAGAAUCAGAAUCCAAAUCAGAGUGCAACAGAGGAUUGAGCAUCA
# B2: 165749694_165756912_2094_CDS_ENSG00000112541_ENST00000354448|human|control|control (ssRNA)
# RNA: GGGAGUUCUACAGUCCGACGAUCCCCAAGCUGGCCUUGGGGGACUUCAUCCUUCUUGUCUCUGUCCAUCAUAGGAAUAGGCUGUAUUCCCAAUUUCUUCAUUUCAUCACCCUCAGCCCAGAAUUCUGCAUAUAUAUCAUUUGCCAACAGAGGAUUGAGCAUCA
# B3: chr9:35067926:35067927:-_ENSG00000165280_ENST00000358901|hu_mus|FALSE|FALSE (ssRNA)
# RNA: GGGAGUUCUACAGUCCGACGAUCUGGCUGGAUGCUGAUGACAUCUCCUAGGCGAACUCGGAGGUUAUUCCGAACAACUCUAUUCAUUCGAAUCUUCUCAUCAGAACACGUGUCAUCAGAAAGAACAAUGCAUACAGCUUCCCGCAACAGAGGAUUGAGCAUCA
# B4: chrX:20248820:20248821:+_ENSMUSG00000001924_ENSMUST00000001989|mus_mus|mus_mus_mus_hu_True|8_98 (ssRNA)
# RNA: GGGAGUUCUACAGUCCGACGAUCGGCGAAGUCCGUCAUCACAAAGUCAGGUUCUGCCAGUGAGGCCACCAAGGAUUUAAAGCUAAUCUUCUUAGGUACUUUGACCUGACUGACGAUGCCUCCACGGAUGUAGUCAGAGAAGUUCAACAGAGGAUUGAGCAUCA
# B5: chr1:174052150:174052151:+_ENSMUSG00000026553_ENSMUST00000135192|mus_hu|FALSE|FALSE (ssRNA)
# RNA: GGGAGUUCUACAGUCCGACGAUCUCCUUUCUAGUUGACAGGAAAGAAAGCUGCUGUGGGGAAAGGAGGGAUAAAUACUGAAGGGAUUUACUAAACAAAUGUCCAUCACAGAGUUUUCCUUUUUUUUUUUUUUGAGACAGAGUCCAACAGAGGAUUGAGCAUCA
# B6: chr1:46865451:46865452:-_ENSMUSG00000025986_ENSMUST00000027131|mus_mus|FALSE|FALSE (ssRNA)
# RNA: GGGAGUUCUACAGUCCGACGAUCCUCAAAUUUUUGUUUUUGUCUUAAAAGGAAAAUCAGAGUAAGAGGAAAAGAACCAGAGAAGGGACUGAAUAAAAAUAUUUAAAAUGGAAAGGCCAGGGUUUGGCUCUUAUGUGGUUUUUCCAACAGAGGAUUGAGCAUCA
# B7: chr7:54823571:54823572:-_ENSG00000132432_ENST00000352861|hu_mus|hu_hu_hu_mus_False|88_108 (ssRNA)
# RNA: GGGAGUUCUACAGUCCGACGAUCUCCCAUUAUAGCAAAUCCUAUAGCUGUUGCCAUGGCAAUCUUCUGGAAUUCUUUUCUGUCGGGUUUGGUGCAUCUUUUAACCAGCCGAAUUGAGUCCUUUACAAACUGCCGGCUGGGCUCCAACAGAGGAUUGAGCAUCA
# B8: chr6:38652254:38652255:-_ENSG00000124767_ENST00000373365|hu_hu|hu_hu_hu_mus_False|1_18 (ssRNA)
# RNA: GGGAGUUCUACAGUCCGACGAUCCGAGAACUUCAUAGCAGGGAAGUCAAGCUUCUGCAGGAGGGUCAGUCCAAGAACCCUCGUAUAAAAAUCCAGGGACUUCUUAGGAUCCUUAAUUCGUAGCAUGGUUUGCUGCAAUAGAAACAACAGAGGAUUGAGCAUCA
# B9: chr5:111714535:111714536:+_ENSMUSG00000033209_ENSMUST00000156290|mus_hu|FALSE|FALSE (ssRNA)
# RNA: GGGAGUUCUACAGUCCGACGAUCAUCUGAGCUUGCUAGUUUUCCCACCUUUUGGAAGGGUGAGUUGGGGCUGGGAAUCAGAGUCAUUUUCACUGGAGAAUUUGGAGUGCUGAUGCUCCCUUUGGAGCUCACCGAGACUCUCAUCAACAGAGGAUUGAGCAUCA
# B10: chr1:186286705:186286706:-_ENSG00000047410_ENST00000367478|hu_mus|motif|central (ssRNA)
# RNA: GGGAGUUCUACAGUCCGACGAUCGAUGCUUGGACAGGCUCCUCUUCCUGCUGGCUAUCAAUUUCUAGGCCUGCCUCUGAACGGAUACCUUCAGACUCCGCCUCUACAAAUACUUCAUCUCCGUCGUCACCUGCUGCUGUUUCGCAACAGAGGAUUGAGCAUCA
# B11: chr16:94690093:94690094:+_ENSMUSG00000040785_ENSMUST00000117648|mus_hu|mus_mus_mus_hu_True|1_108 (ssRNA)
# RNA: GGGAGUUCUACAGUCCGACGAUCGGGGACUCCUGUGGGACACACAGCCUCGAUUCCAGGGGGAAAAAGUCUUAGUCGAUACUAAUUAAAAAGUGUUAAUGAUUUUUGAAAAUCAGAUUACAUCUAUAAAAGAUGAAAGCACUUCAACAGAGGAUUGAGCAUCA
# B12: chr10:84137372:84137373:+_ENSMUSG00000034453_ENSMUST00000077175|mus_hu|FALSE|FALSE (ssRNA)
# RNA: GGGAGUUCUACAGUCCGACGAUCGUAAGAGAGCUCUUCCCCACAUAAUAAAUUCACAUCUUCUACUCCCAAGUUACUGGCUAAUUUAACAAUGGGUCCAUCUUCCAUAUCAGUUGUGAUGUGUGUCAUAAGGGCCAAGUUUUUCAACAGAGGAUUGAGCAUCA
# B13: chr11:215046:215047:+_ENSG00000177963_ENST00000526104|hu_hu|FALSE|FALSE (ssRNA)
# RNA: GGGAGUUCUACAGUCCGACGAUCUUUAUUUCAAGAUGAUGUUUCUGUGGCUAUGUGUGGUAUGUGGUAUAAAUCUCAAUCUAUGGUCACACGAGGGGCAUUUUCCUUGUUGUAAGUGUAGUCUAAACCAGUAGGAAGGAGGUUCAACAGAGGAUUGAGCAUCA
# B14: chr3:170078963:170078964:+_ENSG00000136603_ENST00000458537|hu_hu|FALSE|FALSE (ssRNA)
# RNA: GGGAGUUCUACAGUCCGACGAUCGGGUGCAAACAUUCCACAACACUCCAGACAUUGAAUACACGGAGCAUCAGGCUGAACAUAAAACUGGGGUGCAAAUAAACCCUGACAUUUGCCUAGGCAUUCAUGCUCCACUUCAAAGGCCAACAGAGGAUUGAGCAUCA
# B15: chr7:141356670:141356671:-_ENSG00000257093_ENST00000536163|hu_hu|FALSE|FALSE (ssRNA)
# RNA: GGGAGUUCUACAGUCCGACGAUCUAUAUACAGAUAUGAUAUUCAUAGAUGUUAUUUGUACCACAGAACAAAAUCAAUUCAAGAAACAUUUACUUUUAGCUUCAGGAUUAACCCCAGCUUUCUUUAGGCCUUAAAAUUACCACCCAACAGAGGAUUGAGCAUCA
# B16: chr9:103913939:103913940:+_ENSMUSG00000032558_ENSMUST00000035167|mus_hu|FALSE|FALSE (ssRNA)
# RNA: GGGAGUUCUACAGUCCGACGAUCAAAAUAAACAGCAUGGAAAAAAUAUCCCAUUGUCUCGCACAUUCUCUUAAGUUUAGGUGAAUAGUCCUUAAGGAAAAGAUCCAUCUCAGGCUGGGUUUCAUCUGUAUAAAUGAGGUAACACAACAGAGGAUUGAGCAUCA
# B17: chr14:89307221:89307222:+_ENSG00000165533_ENST00000346301|hu_mus|hu_hu_hu_mus_False|18_28 (ssRNA)
# RNA: GGGAGUUCUACAGUCCGACGAUCUCCUGUUUGGUUAGUGCCAGGGAGCUUCAAAGAUGUGCCAGGGCGUGGGACCUGAGCAAUAGCAUUUUCAUCCAGGAUCAUUUCUGCAAUUCCUUCCUGAUCUACAUCAAUUUCAUCUAUCAACAGAGGAUUGAGCAUCA
# B18: 38108049_38108169_4134_3pUTR_ENSMUSG00000063455_ENSMUST00000169256|mouse|control|control (ssRNA)
# RNA: GGGAGUUCUACAGUCCGACGAUCCCCUCUGAGCCGUAUGUUCUUGGAAGGGAGCUUUGACUUGGGGCUCGGCACAUCUCCGUUUUCUGAGGGUGUGGUGUGGUCCUUCACAGGGCCUGGCAGUGGCGCUGGCUCAUGAAUAAUCAACAGAGGAUUGAGCAUCA
# B19: chr13:120183613:120183614:-_ENSMUSG00000025453_ENSMUST00000099149|mus_hu|motif|central (ssRNA)
# RNA: GGGAGUUCUACAGUCCGACGAUCGUAAAUAAAACUAAUCAGCGUUCCUGAUGUCUUUAAAAGGUCAGCUUCAUGAACACCGGAUGUUGGAUUAACCAUAGGGGCUCGCACUUUGACCACCAAAUCAGAAGCCAGCACUUCCUUCAACAGAGGAUUGAGCAUCA
# B20: chr4:175180916:175180917:-_ENSG00000164117_ENST00000503293|hu_hu|FALSE|FALSE (ssRNA)
# RNA: GGGAGUUCUACAGUCCGACGAUCAUUAAAGGUGAGGCUGCCUUCAUCCAGCUGCAUAUACAAUUUUCUAAAAGAAAAUCCUAAAGGUGGGUUCUUAUUGUAUAUGGAACAGUGACCCCAAGUGGAUUUGCACAACCCUUGCCACAACAGAGGAUUGAGCAUCA
# B21: chr6:40197388:40197389:+_ENSMUSG00000057716_ENSMUST00000061740|mus_mus|mus_mus_mus_hu_False|68_88 (ssRNA)
# RNA: GGGAGUUCUACAGUCCGACGAUCGAGACACUGGGGUGGAUUUAUUCUCAGUUUGGGUGGGUGCUAGUAAGAUAGAUUGUUAUUUUGGGAUUCAUGGCCUUGAAUAUCAAGAGGGAAAGGAAGAGGAUGGAAAGAGUCAAGAGUCAACAGAGGAUUGAGCAUCA
# B22: chr1:217782781:217782782:-_ENSG00000092978_ENST00000366934|hu_hu|FALSE|FALSE (ssRNA)
# RNA: GGGAGUUCUACAGUCCGACGAUCUUUUGAUGUGUUUCAGGUAUCAGACAAAGCAGAUAAUUUAAAAGGUAAAUGAUUCUACUAGUGCAGACUAGUUAUCACUGUGGCUAAUUUAAAACGAGGAUGAUUUUUGCAGUACAAUGACAACAGAGGAUUGAGCAUCA
# Molecular target: T1, UNK ZnF1-3
# Assay: nsRBNS (natural sequence RNA bind-n-seq); RBNS binding buffer (assumed for nsRBNS): 25 mM Tris pH 7.5, 150 mM KCl, 3 mM MgCl2, 0.01% Triton X-100, 500 ug/ml BSA, 20 U/ml SUPERase-In, 4 C; UNK is unkempt and MSI1 is Musashi-1; names of the RNAs are library labels; protein concentration not given here; high values mean tight binding
row,Binder,binding signal
1,B1,0.879 enrichment R
2,B2,0.762 enrichment R
3,B3,0.8 enrichment R
4,B4,0.908 enrichment R
5,B5,1.27 enrichment R
6,B6,2.62 enrichment R
7,B7,0.693 enrichment R
8,B8,0.678 enrichment R
9,B9,0.903 enrichment R
10,B10,0.899 enrichment R
11,B11,1.17 enrichment R
12,B12,0.711 enrichment R
13,B13,1.21 enrichment R
14,B14,1.32 enrichment R
15,B15,1.05 enrichment R
16,B16,0.996 enrichment R
17,B17,0.866 enrichment R
18,B18,1 enrichment R
19,B19,0.619 enrichment R
20,B20,1.46 enrichment R
21,B21,2.73 enrichment R
22,B22,0.987 enrichment R
